Results: publication PMC4336329 (PLoS ONE, 2015)
The campaign covered roughly 310,000 compounds. About 14,000 (4.5%) showed an effect of 50% or more. The effect is printed as a negative number. This is one part of the list.

biological target: human ether-à-go-go-related gene (hERG) potassium channel (human, UniProt Q12809); experiment: primary screen, population patch clamp on CHO cells stably expressing hERG
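Note: peak tail current of the secondary pulse compared with the same well before compound.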

human ether-à-go-go-related gene (hERG) potassium channel, sequence (Q12809 whole entry, looked up): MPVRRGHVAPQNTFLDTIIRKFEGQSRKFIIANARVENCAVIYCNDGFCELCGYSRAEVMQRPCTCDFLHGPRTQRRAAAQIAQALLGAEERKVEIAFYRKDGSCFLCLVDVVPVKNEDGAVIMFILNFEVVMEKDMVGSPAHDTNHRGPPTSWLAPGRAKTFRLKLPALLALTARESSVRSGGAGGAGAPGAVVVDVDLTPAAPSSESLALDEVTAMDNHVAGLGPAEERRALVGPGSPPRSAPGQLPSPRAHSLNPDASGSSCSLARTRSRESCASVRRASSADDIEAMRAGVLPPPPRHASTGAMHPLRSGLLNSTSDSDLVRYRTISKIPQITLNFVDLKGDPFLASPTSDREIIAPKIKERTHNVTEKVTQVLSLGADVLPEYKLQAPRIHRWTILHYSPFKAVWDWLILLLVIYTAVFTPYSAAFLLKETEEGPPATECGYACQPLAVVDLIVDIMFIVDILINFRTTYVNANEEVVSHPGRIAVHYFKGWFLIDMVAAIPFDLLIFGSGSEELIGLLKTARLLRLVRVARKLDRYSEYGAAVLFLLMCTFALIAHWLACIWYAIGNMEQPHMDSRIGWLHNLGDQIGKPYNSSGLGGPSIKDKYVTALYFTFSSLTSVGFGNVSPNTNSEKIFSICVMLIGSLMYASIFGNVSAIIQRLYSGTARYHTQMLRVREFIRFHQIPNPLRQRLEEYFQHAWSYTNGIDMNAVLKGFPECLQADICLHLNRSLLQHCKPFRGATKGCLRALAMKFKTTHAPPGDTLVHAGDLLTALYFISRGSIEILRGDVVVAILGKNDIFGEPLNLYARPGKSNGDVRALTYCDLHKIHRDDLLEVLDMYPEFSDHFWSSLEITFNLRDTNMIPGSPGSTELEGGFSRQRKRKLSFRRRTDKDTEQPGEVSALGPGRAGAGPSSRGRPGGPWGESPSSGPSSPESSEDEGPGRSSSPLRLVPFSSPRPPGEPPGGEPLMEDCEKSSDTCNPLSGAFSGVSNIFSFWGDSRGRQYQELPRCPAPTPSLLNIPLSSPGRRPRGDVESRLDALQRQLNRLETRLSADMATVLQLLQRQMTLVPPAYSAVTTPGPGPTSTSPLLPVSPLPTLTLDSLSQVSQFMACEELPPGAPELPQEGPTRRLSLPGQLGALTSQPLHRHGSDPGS

SMILES | hERG current change (%, negative = inhibition) at 10uM [%]
CCCCN(C)CCCNC(=O)C1CCC(CNS(=O)(=O)c2c(C)cc(C)cc2C)CC1 (stereo not shown) | -77.3
Cc1nnsc1C(=O)Nc1ccccc1 | 18.2
O=C(CCN1C(=O)S/C(=C\c2ccc(F)cc2)C1=O)Nc1ccc(O)cc1C(=O)O | 14.2
CCn1c(=N)n(CCOc2ccc(OC)cc2)c2ccccc21 | -55.1
Fc1ccc2c(c1)[C@H]1OCC[C@H]1[C@@H](c1ccco1)N2 | -8.3
CCC(=O)Nc1ccc(C(=O)NNC(=O)c2ccc(C)cc2)cc1 | 14
CCC(C)C(NC(=O)C1CCC(C)CC1)C(=O)Nc1ccc(OC)cc1 (stereo not shown) | -1.46
Cc1c(Cl)c([N+](=O)[O-])nn1CCCC(=O)Nc1cc(Oc2ccccc2)cc([N+](=O)[O-])c1 | -19.2
O=C(COC(=O)c1cccc(-n2cnnn2)c1)Nc1c(Cl)cccc1C(F)(F)F | 11
Nn1c(SCC(=O)Nc2ccc3c(c2)OCCO3)nncc1=O | 20.3
COCCCNC(=O)C(=O)Nc1cc2c3c(c1)CCN3C(=O)CC2 | 10.9
O=[N+]([O-])c1cc(Br)c(OCc2nnc(-c3ccccc3)o2)c(Br)c1 | 2.72
CCOC(=O)c1c(S(=O)(=O)NCC(=O)NCc2cccc(C)c2)c(C)n(C)c1C | -41.3
Cc1cccc(N2CCN(C(=O)CCNS(=O)(=O)c3cccs3)CC2C)c1 (stereo not shown) | 7.88
O=C(O)c1cccc(NC(=S)N/N=C/c2cccc(O)c2)c1 | 10.5
COc1ccc(CC(=O)OCC(=O)Nc2ccc(Cl)c(S(=O)(=O)N(C)C)c2)cc1 | 12.9
CSc1nc(N)n(-c2cc(C(F)(F)F)ccn2)n1 | 1.28
Cc1cc(C)nc(N/N=C/c2ccccc2OCc2ccc([N+](=O)[O-])cc2)n1 | -11.9
O=C(Nc1nnc(C2=COCCO2)o1)c1ccc(S(=O)(=O)N2CCCC2)cc1 | 17.2
Cc1ccc(N(C)C(=O)CCS(=O)(=O)c2ccc3c(c2)oc(=O)n3C)cc1 | -6.76
Cc1cc2c(cc1S(=O)(=O)NCc1ccccc1Cl)OCCN2C | -7.97
Cc1ccc(NC(=O)C(C)Sc2nc(=O)cc(N)n2-c2ccccc2)cc1 (stereo not shown) | 18.5

SMILES | hERG current change (%, negative = inhibition) at 10uM [%]
CCC(C)n1cnc2c(c1=O)c1nc3ccccc3nc1n2Cc1ccc(OC)cc1 (stereo not shown) | -31.2
O=C(c1cccc(C(=O)N2CCN(c3ccccc3F)CC2)n1)N1CCN(c2ccccc2F)CC1 | -28.3
N#Cc1c2ccc([N+](=O)[O-])cc2[n+]([O-])n1-c1ccccc1 | 10.7
O=C(NC1CCCCC1)N1CCN(Cc2ccco2)CC1 | 11.8
O=C1/C(=C/Nc2ccc3c(c2)OCO3)CCc2ccccc21 | 1.21
COc1ccc(CN2CCN(CC3CC3)CC2CCO)cc1C (stereo not shown) | -0.194
Cc1cccc(Nc2c([N+](=O)[O-])cc(C(=O)N3CC(=O)Nc4ccccc43)cc2[N+](=O)[O-])c1 | -7.96
Cc1ccc(S(=O)(=O)c2c(C)cc(-c3ccccc3)[nH]c2=O)cc1 | 8.91
COc1ccc(CC(=O)NCCS(=O)(=O)N2CCN(c3ccc(F)cc3)CC2)cc1OC | -28.1
C#CC(C)(C)NC(=S)NC1CC2C=CC1C2 (stereo not shown) | 6.32
O=C(CSc1nnc(NC(=O)c2ccco2)s1)Nc1ccccc1 | 22.7
O=c1c(Cl)c(NCC2CCCO2)cnn1C12CC3CC(CC(C3)C1)C2 (stereo not shown) | -29.3
CN(C)CCCNC(=O)c1cc(C(=O)c2ccccc2F)c[nH]1 | 1.23
O=C(O)c1cc(-c2ccccc2)nn1CC1CC(c2cccc([N+](=O)[O-])c2)=NO1 (stereo not shown) | 19.1
COc1cc(SC)ccc1C(=O)OCC(=O)NC1CCCCC1 | 9.22
Cc1ccc(CN(C)C(=O)CCNS(=O)(=O)c2ccccc2)o1 | 0.979
CCCc1nnc(NC(=O)CSc2nc3ccccc3[nH]2)s1 | 0.62
COc1ccc2[nH]c(C(=O)NCCN3CCCCC3)cc2c1 | -0.647
Cc1ccc(C(=O)NNc2nc3ccccc3nc2C(F)(F)F)cc1 | 6.48
Brc1ccc(-c2nnc3ccc(N4CCN(c5ccccc5)CC4)nn23)cc1 | 5.09
COc1ccccc1NS(=O)(=O)c1cc(Cl)ccc1OC | -6.58
